These results are taken from article PMC12820563, “FoxP3 forms a head-to-head dimer in vivo and stabilizes its multimerization on adjacent microsatellites”.

This is one part of the list.

For the experiment, the target named is T1, MBP-FoxP1dN (Mus musculus, UniProt P58462 326-579).
T1 sequence: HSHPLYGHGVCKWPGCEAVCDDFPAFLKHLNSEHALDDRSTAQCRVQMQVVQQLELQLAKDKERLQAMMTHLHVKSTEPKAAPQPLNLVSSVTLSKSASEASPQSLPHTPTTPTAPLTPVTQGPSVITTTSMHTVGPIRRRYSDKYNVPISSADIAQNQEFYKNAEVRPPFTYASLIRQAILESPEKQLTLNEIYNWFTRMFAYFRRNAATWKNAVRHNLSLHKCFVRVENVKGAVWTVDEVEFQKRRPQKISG
The experiment in a line: PD-seq (MBP pull-down with sequencing); 20 mM Tris-HCl pH 7.5, 100 mM NaCl, 1.5 mM MgCl2, 0.4 uM protein, 0.1 uM dsDNA library, 30 min, room temperature, amylose pull-down; high values mean tight binding. To be noted: protein: recombinant; tags: His6-MBP; chain copies: 2; dsDNA, one strand shown. In a few lines:
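Amylose resin was used to capture complexes formed during 30 min at room temperature in Tris pH 7.5 buffer with NaCl and MgCl2 between 0.4 µM His6-MBP-tagged mouse FoxP3 or FoxP1 fragment lacking the N-terminus, expressed in E. coli, and 0.1 µM Klenow-filled double-stranded degenerate DNA library. After three washes, the DNA was released with proteinase K, barcoded by PCR and sequenced on Illumina. Binding is pooled-replicate reads-per-million enrichment, pull-down over input.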
For the sequence “GATGATTGTTCTCCCAGCTGATGAATTGTTCTTCTCGAGTAAACAAATTTTCCTAATCTTTCTGTTCAAGCGCCATCTAC”, the binding signal is 1.12 RPM ratio (pull-down/input).
Take “GATGATTGTTCTCCCAGCTGATGAATTTCAAAAATCGAGTAAACAAATTTTCCTAATCTTTCTGTTCAAGCGCCATCTAC”: the binding signal was 1.15 RPM ratio (pull-down/input).
Consider “GATGATTGTTCTCCCAGCTGATGAATTACAAGCGTCGAGTAAACAAATTTTCCTAATCTTTCTGTTCAAGCGCCATCTAC”, for which the binding signal was 1.16 RPM ratio (pull-down/input).
Regarding “GATGATTGTTCTCCCAGCTGATGAATTTATGGATTCGAGTAAACAAATTTTCCTAATCTTTCTGTTCAAGCGCCATCTAC”, the binding signal was 1.15 RPM ratio (pull-down/input).
As for “GATGATTGTTCTCCCAGCTGATGAATTTTTGCCTTCGAGTAAACAAATTTTCCTAATCTTTCTGTTCAAGCGCCATCTAC”, the binding signal was 0.978 RPM ratio (pull-down/input).
As for “GATGATTGTTCTCCCAGCTGATGAATTTTGTAGTTCGAGTAAACAAATTTTCCTAATCTTTCTGTTCAAGCGCCATCTAC”, the binding signal is 1.35 RPM ratio (pull-down/input).
For “GATGATTGTTCTCCCAGCTGATGAATTGAGCCTCTCGAGTAAACAAATTTTCCTAATCTTTCTGTTCAAGCGCCATCTAC”, the binding signal is 0.821 RPM ratio (pull-down/input).
To “GATGATTGTTCTCCCAGCTGATGAATTGTCTGAGTCGAGTAAACAAATTTTCCTAATCTTTCTGTTCAAGCGCCATCTAC” belongs 0.967 RPM ratio (pull-down/input); to “GATGATTGTTCTCCCAGCTGATGAATTACCTTGCTCGAGTAAACAAATTTTCCTAATCTTTCTGTTCAAGCGCCATCTAC”, 0.985 RPM ratio (pull-down/input); to “GATGATTGTTCTCCCAGCTGATGAATTAAGCAGTTCGAGTAAACAAATTTTCCTAATCTTTCTGTTCAAGCGCCATCTAC”, 0.979 RPM ratio (pull-down/input).
In the case of “GATGATTGTTCTCCCAGCTGATGAATTAACTTTCTCGAGTAAACAAATTTTCCTAATCTTTCTGTTCAAGCGCCATCTAC”, the binding signal was 0.921 RPM ratio (pull-down/input).
For “GATGATTGTTCTCCCAGCTGATGAATTAACTGTTTCGAGTAAACAAATTTTCCTAATCTTTCTGTTCAAGCGCCATCTAC” the value was 0.973 RPM ratio (pull-down/input); for “GATGATTGTTCTCCCAGCTGATGAATTCACGTAGTCGAGTAAACAAATTTTCCTAATCTTTCTGTTCAAGCGCCATCTAC”, 0.794 RPM ratio (pull-down/input).
For the sequence “GATGATTGTTCTCCCAGCTGATGAATTCTACTCGTCGAGTAAACAAATTTTCCTAATCTTTCTGTTCAAGCGCCATCTAC”, the binding signal is 0.902 RPM ratio (pull-down/input).
For “GATGATTGTTCTCCCAGCTGATGAATTTCCGCGGTCGAGTAAACAAATTTTCCTAATCTTTCTGTTCAAGCGCCATCTAC”, the binding signal is 0.761 RPM ratio (pull-down/input).
On to “GATGATTGTTCTCCCAGCTGATGAATTCCTTCGCTCGAGTAAACAAATTTTCCTAATCTTTCTGTTCAAGCGCCATCTAC”, for which the binding signal is 0.786 RPM ratio (pull-down/input).
For “GATGATTGTTCTCCCAGCTGATGAATTAATAGTGTCGAGTAAACAAATTTTCCTAATCTTTCTGTTCAAGCGCCATCTAC” the value was 1.12 RPM ratio (pull-down/input); for “GATGATTGTTCTCCCAGCTGATGAATTATCGTACTCGAGTAAACAAATTTTCCTAATCTTTCTGTTCAAGCGCCATCTAC”, 1.09 RPM ratio (pull-down/input).
Regarding “GATGATTGTTCTCCCAGCTGATGAATTCCACAACTCGAGTAAACAAATTTTCCTAATCTTTCTGTTCAAGCGCCATCTAC”, the binding signal is 0.92 RPM ratio (pull-down/input).
On to “GATGATTGTTCTCCCAGCTGATGAATTCCGGGCCTCGAGTAAACAAATTTTCCTAATCTTTCTGTTCAAGCGCCATCTAC”, for which the binding signal was 0.733 RPM ratio (pull-down/input).
For the sequence “GATGATTGTTCTCCCAGCTGATGAATTGCATTGTTCGAGTAAACAAATTTTCCTAATCTTTCTGTTCAAGCGCCATCTAC”, the binding signal is 1.43 RPM ratio (pull-down/input).
To “GATGATTGTTCTCCCAGCTGATGAATTGTCCTGATCGAGTAAACAAATTTTCCTAATCTTTCTGTTCAAGCGCCATCTAC” belongs 0.945 RPM ratio (pull-down/input).
Take “GATGATTGTTCTCCCAGCTGATGAATTGTGGTGATCGAGTAAACAAATTTTCCTAATCTTTCTGTTCAAGCGCCATCTAC”: the binding signal was 1.1 RPM ratio (pull-down/input).
With “GATGATTGTTCTCCCAGCTGATGAATTGTAAACCTCGAGTAAACAAATTTTCCTAATCTTTCTGTTCAAGCGCCATCTAC”, the binding signal is 1.38 RPM ratio (pull-down/input).
Regarding “GATGATTGTTCTCCCAGCTGATGAATTTACACGGTCGAGTAAACAAATTTTCCTAATCTTTCTGTTCAAGCGCCATCTAC”, the binding signal is 1.17 RPM ratio (pull-down/input).
For “GATGATTGTTCTCCCAGCTGATGAATTAGTAGGATCGAGTAAACAAATTTTCCTAATCTTTCTGTTCAAGCGCCATCTAC” the value was 0.889 RPM ratio (pull-down/input); for “GATGATTGTTCTCCCAGCTGATGAATTCGCTGAATCGAGTAAACAAATTTTCCTAATCTTTCTGTTCAAGCGCCATCTAC”, 0.92 RPM ratio (pull-down/input); for “GATGATTGTTCTCCCAGCTGATGAATTCGCTCGCTCGAGTAAACAAATTTTCCTAATCTTTCTGTTCAAGCGCCATCTAC”, 0.764 RPM ratio (pull-down/input).
As to “GATGATTGTTCTCCCAGCTGATGAATTCCTGGCCTCGAGTAAACAAATTTTCCTAATCTTTCTGTTCAAGCGCCATCTAC”, the binding signal is 0.755 RPM ratio (pull-down/input).
For “GATGATTGTTCTCCCAGCTGATGAATTGTTATGGTCGAGTAAACAAATTTTCCTAATCTTTCTGTTCAAGCGCCATCTAC” the value was 1.51 RPM ratio (pull-down/input); for “GATGATTGTTCTCCCAGCTGATGAATTACGCGAGTCGAGTAAACAAATTTTCCTAATCTTTCTGTTCAAGCGCCATCTAC”, 0.949 RPM ratio (pull-down/input).
